The supplement of paper PMC4604168 (melanoma cell lines)
The other results are listed elsewhere or left out. Most values come without repeats; read them as rough.
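Note: cells treated in 1,536-well plates, then fixed and DAPI-stained, with nuclei counted from automated high-throughput microscope images.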

What follows are compounds tested on WM3619 (assay: cell count relative to DMSO control; melanoma cells; higher = more viable cells). Details: library dose: standard library concentration; 72 h.
For `NCC(=O)Nc1ccc(-n2nc(C(F)(F)F)cc2-c2ccc3c(ccc4ccccc43)c2)cc1` + O=C1NC(=O)/C(=C/c2ccc(-c3ccc(F)cc3O)o2)S1 [AS252424] (first compound 5 µM, partner dose 5 µM), the cell count was 5.58%.
`C[C@]1(c2nc3c(C(N)=O)cccc3[nH]2)CCCN1` [Veliparib] + COc1ccc(COc2ccc(Cc3cnc(N)nc3N)cc2OC)cc1 [GW2580] (first compound 7 µM, partner dose 5 µM) showed a cell count of 84.2%.
In the case of `Cc1nc(Nc2ncc(C(=O)Nc3c(C)cccc3Cl)s2)cc(N2CCN(CCO)CC2)n1` [dasatanib] + O=c1cc(-c2cccc3c2Sc2ccccc2S3)oc(N2CCOCC2)c1 [KU55933] (first compound 0.02 µM, partner dose 5 µM), the cell count is reported as 85.7%.
`NC(=O)Nc1cc(-c2cccc(F)c2)sc1C(=O)N[C@H]1CCCNC1` + CCN(CC)CCCCNc1ncc2cc(-c3cc(OC)cc(OC)c3)c(NC(=O)NC(C)(C)C)nc2n1 [PD173074] (first compound 0.1 µM, partner dose 0.5 µM) gave a cell count of 23%.
`C=CCn1c(=O)c2cnc(Nc3ccc(N4CCN(C)CC4)cc3)nc2n1-c1cccc(C(C)(C)O)n1` + c1cc(-c2cnn3cc(-c4ccc(OCCN5CCCCC5)cc4)cnc23)ccn1 [Dorsomorphin] (first compound 0.1 µM, partner dose 2 µM) showed a cell count of 47.6%.
In the case of `C[C@]1(c2nc3c(C(N)=O)cccc3[nH]2)CCCN1` [Veliparib] + COc1ccc(-c2ccc3c(N4CCOCC4)nc(N4C[C@@H](C)O[C@@H](C)C4)nc3n2)cc1CO [KU0063794] (first compound 7 µM, partner dose 0.1 µM), the cell count is reported as 46.7%.
`C=CCn1c(=O)c2cnc(Nc3ccc(N4CCN(C)CC4)cc3)nc2n1-c1cccc(C(C)(C)O)n1` + O=S(=O)(c1ccccc1)N(CC(F)(F)F)c1ccc(C(O)(C(F)(F)F)C(F)(F)F)cc1 [T0901317] (first compound 0.1 µM, partner dose 7 µM) showed a cell count of 77.2%.
`CO[C@@H]1[C@H](N(C)C(=O)c2ccccc2)C[C@H]2O[C@]1(C)n1c3ccccc3c3c4c(c5c6ccccc6n2c5c31)C(=O)NC4` [Midostaurin] + COc1cc(N2CCC(N3CCN(C)CC3)CC2)ccc1Nc1ncc(Cl)c(Nc2ccccc2S(=O)(=O)C(C)C)n1 [NVP-TAE684] (first compound 0.4 µM, partner dose 0.4 µM) gave a cell count of 58.5%.
`OCCn1cc(-c2cnc3nnn(Cc4ccc5ncccc5c4)c3n2)cn1` + O=C(O)C(=O)Nc1sc2c(c1C(=O)O)CCNC2 [TCS401] (first compound 5 µM, partner dose 8.33333 µM) showed a cell count of 75.9%.
`NC(=O)Nc1cc(-c2cccc(F)c2)sc1C(=O)N[C@H]1CCCNC1` + O=C1NC(=O)/C(=C/c2ccc(-c3ccc(F)cc3O)o2)S1 [AS252424] (first compound 0.1 µM, partner dose 5 µM) showed a cell count of 36.5%.
In the case of `CO[C@@H]1[C@H](N(C)C(=O)c2ccccc2)C[C@H]2O[C@]1(C)n1c3ccccc3c3c4c(c5c6ccccc6n2c5c31)C(=O)NC4` [Midostaurin] + COc1ccc2c(c1)CCC1C2CCC2(C)C(NCCCCCCN3C(=O)C=CC3=O)CCC12 [U73122] (first compound 0.4 µM, partner dose 2 µM), the cell count is reported as 52.4%.
`CO[C@@H]1[C@H](N(C)C(=O)c2ccccc2)C[C@H]2O[C@]1(C)n1c3ccccc3c3c4c(c5c6ccccc6n2c5c31)C(=O)NC4` [Midostaurin] + COC(=O)c1sccc1S(=O)(=O)Nc1ccc(Nc2ccccc2)cc1OC [GSK0660] (first compound 0.4 µM, partner dose 5 µM) was tested, and the cell count was 59.5%.
`OCCn1cc(-c2cnc3nnn(Cc4ccc5ncccc5c4)c3n2)cn1` + c1cc(-c2cnn3cc(-c4ccc(OCCN5CCCCC5)cc4)cnc23)ccn1 [Dorsomorphin] (first compound 5 µM, partner dose 2 µM) was tested, and the cell count was 83.9%.
Work on `CO[C@@H]1[C@H](N(C)C(=O)c2ccccc2)C[C@H]2O[C@]1(C)n1c3ccccc3c3c4c(c5c6ccccc6n2c5c31)C(=O)NC4` [Midostaurin] + COc1ccc(-c2ccc3c(N4CCOCC4)nc(N4C[C@@H](C)O[C@@H](C)C4)nc3n2)cc1CO [KU0063794] (first compound 0.4 µM, partner dose 0.1 µM) yielded a cell count of 48.3%.
